From PubChem BioAssay AID1347073 (National Center for Advancing Translational Sciences (NCATS), 2019)
Hit rate of the full screen: of about 45,000 compounds, about 200 (0.44%) were called active. About 7% were inconclusive and are not listed. The call rests on the fitted dose curve; in most records, active means well fitted activation curve with a large enough effect; inconclusive means small, poorly fitted or top-dose-only effect; inactive means no such curve, though single readings can be large or run the other way. The list shows a part of the results.

Test: qHTS of TDP-43 Inhibitors: NCGC Sytravon Library Screen; further: nearly all actives have a fitted effect of over 55% in size; on growth rescue (activation): 0% is about no effect
Conditions: yeast TDP-43 toxicity rescue, BacTiter-Glo growth, 24 h; series mostly up to 46.1 µM; growth rescue (activation): at the top concentration
In short: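 TDP-43-expressing yeast, pregrown in raffinose, seeded at OD600 0.02 in galactose medium with compound for 24 hr at 30 deg C. Growth read by BacTiter-Glo luminescence, so rescue of toxicity appears as activation.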
Potency means the concentration at half of the fitted maximal effect.

| Compound | growth rescue (activation) | Potency |
| --- | --- | --- |
| Cc1ccc2[nH]c3c(NCCN4CCOCC4)ncnc3c2c1 | inactive: 22.6% |  |
| CCNC(=O)COc1ccc(OCc2ccccc2)cc1 | inactive: 7.8% |  |
| Cc1ccc(CN2C(=NC(=O)CCC(=O)O)SC3CS(=O)(=O)CC32)cc1 (stereo not given) | inactive: 31.8% |  |
| COC(=O)c1ccc(NC(=O)CSc2nncn2-c2cccnc2)cc1 | inactive: -14.6% |  |
| CCCCN(CC)Cc1ccc(CNC(=S)Nc2ccc(C)cc2Cl)o1 | inactive: -3.64% |  |
| CC(=O)c1ccc(S(=O)(=O)Nc2cc3c(cc2C(C)=O)OCO3)cc1 | inactive: 9.43% |  |
| CN1/C(=C\C(=O)C[n+]2ccc3ccccc3c2)C(C)(C)c2ccccc21 | inactive: -4.86% |  |
| CC(=O)N1CCN(S(=O)(=O)c2cccc(C(=O)Nc3ccc(F)c(F)c3)c2)CC1 | inactive: 7.78% |  |
| Cc1cc(C)n(CCNC(=O)c2ccc3c(c2)OCO3)n1 | inactive: 1.05% |  |
| COc1ccc([N+](=O)[O-])cc1NC(=O)c1ccc(C)o1 | inactive: 36.1% |  |
| CC(=O)NCCC(=O)Nc1nc(-c2c[nH]c3ccccc23)cs1 | inactive: 5.83% |  |
| O=C(O)c1ccc(-c2nc(-c3ccccc3Cl)cs2)cc1 | inactive: 7.57% |  |
| COc1cc(OC)cc(C(=O)Nc2ccc3c(c2)OCCO3)c1 | inactive: 25.7% |  |
| CCn1cc(C(=O)O)c(=O)c2cc(F)c(N3CCN(C(=S)NC(=O)c4ccccc4)CC3)cc21 | inactive: 21.3% |  |
| NC(=O)c1ccsc1NC(=O)COC(=O)COc1ccccc1F | inactive: 13.1% |  |
| CC(C)C(=O)Nc1ccc(C(=O)Nc2nnc(C(C)(C)C)s2)cc1 | inactive: -7.75% |  |
| Cc1nnc(SC(C)C(=O)Nc2ccc3ccccc3c2)[nH]c1=O (stereo not given) | inactive: 7.78% |  |
| O=C1CC(N2CCN(c3ccc(F)cc3)CC2)C(=O)N1Cc1ccccc1 (stereo not given) | inactive: -7.97% |  |
| Cc1ccccc1Nc1c(-c2ccccc2)nc2ncccn12 | inactive: 4.77% |  |
| CN(c1ccccc1)S(=O)(=O)c1ccc2c(c1)oc(=O)n2C | inactive: 15.4% |  |
| O=C(/C=C/c1ccc(N2CCCCC2)c([N+](=O)[O-])c1)c1ccc(S(=O)(=O)N2CCCC2)cc1 | inactive: 22.3% |  |
| CN(C)CCNC(=O)C1(O)c2cc(Br)ccc2NC(=O)N1c1ccc(Cl)cc1 (stereo not given) | inactive: 5.69% |  |
| OC[C@H]1O[C@@H](c2nc(-c3cccc4ccccc34)no2)[C@H](O)[C@@H]1O | inactive: -13.5% |  |
| CCOc1ccc(C(=O)N2CCCC(c3nc(-c4ccc(C)o4)no3)C2)cc1 (stereo not given) | inactive: 5.23% |  |

| Compound | growth rescue (activation) | Potency |
| --- | --- | --- |
| COc1ccccc1C(=O)NCCCNC(=O)c1ccccn1 | inactive: -13.6% |  |
| COc1cc(N2CCCC2)c(OC)cc1/C=C(/C#N)c1cccc(Br)c1 | inactive: 43.9% |  |
| CCCCOc1ccc(C2(C)NC(=O)NC2=O)cc1 (stereo not given) | inactive: 7.11% |  |
| CN(CC(=O)Nc1ccc(F)cc1)C(=O)CCc1ccccc1 | inactive: 6.79% |  |
| COc1ccc(CN=C2NN=C(c3ccccc3)CS2)cc1 | inactive: 11.7% |  |
| CCCn1c(N)c(C(=O)CN(C)CC(=O)Nc2cc(C)ccc2C)c(=O)[nH]c1=O | inactive: 8.99% |  |
| OCC#Cc1cnc2ccccc2c1 | inactive: -18.3% |  |
| O=C(c1c[nH]c(C(=O)N2CCN(c3ccccc3F)CC2)c1)c1cccc(Cl)c1Cl |  | active: 20 µM |
| CC(=O)c1cccc(N(CC(=O)NC2CCCCC2)C(=O)CNC(=O)c2cccs2)c1 | inactive: 9.67% |  |
| Cc1ccc(C)c(N2CCN(c3nc4ccc(Cl)cc4n4cnnc34)CC2)c1 | inactive: 13.8% |  |
| COc1ccc(/C=C/C(=O)N(C)C2CCS(=O)(=O)C2)cc1OC (stereo not given) | inactive: 2.18% |  |
| CCOc1ccccc1NC(=O)c1ccccc1NC(=O)c1ccco1 | inactive: 8.56% |  |
| Cc1ccnc(SCC(=O)N2CCc3ccccc3C2)n1 | inactive: 12.1% |  |
| COc1ccc(CC(=O)Nc2ccc(F)c(F)c2F)cc1S(=O)(=O)N1CCOCC1 | inactive: 21% |  |
| COC(=O)c1ccc(CNC(=O)C(NC(=O)c2ccco2)C(C)C)cc1 (stereo not given) | inactive: 10.5% |  |
| O=C(CSc1n[nH]c(-c2ccncc2)n1)Nc1ccc(Br)cc1 | inactive: 14.8% |  |
| O=C(CN1CCC2(CC1)OCCO2)c1c[nH]c2ccccc12 | inactive: 7.73% |  |
| ClC(/C=N/n1cnnc1)=C/c1ccccc1 | inactive: -8.87% |  |
| CN(Cc1nc(-c2cccs2)no1)CC(O)c1ccccc1 (stereo not given) | inactive: 6.88% |  |
| COc1ccccc1C(=O)COC(=O)C1(C)CC1(Cl)Cl (stereo not given) | inactive: 3.72% |  |
| Cc1ccc(C(=O)OCC(=O)N2CCOCC2)c(C)c1 | inactive: 7.82% |  |
| Cc1ccc(C2=NN(C(=O)CCC(=O)O)C(c3cccc([N+](=O)[O-])c3)C2)cc1 (stereo not given) | inactive: -10.7% |  |
| CSc1ncccc1C(=O)NCCc1ccccc1 | inactive: 17.6% |  |
| CC12CCC(=O)N1C(C(=O)OCC(=O)Nc1cccc(Br)c1)CS2 (stereo not given) | inactive: 3.15% |  |

| Compound | growth rescue (activation) | Potency |
| --- | --- | --- |
| Cc1ccc2c(c1)N(CC(=O)Nc1ccccc1F)C(=O)C(C)O2 (stereo not given) | inactive: 1.43% |  |
| O=C(O)C1C2CCC(C2)C1C(=O)NCc1ccco1 (stereo not given) | inactive: -2.48% |  |
| CCn1c(SCC(=O)Nc2nnc(C)s2)nnc1C(C)NC(=O)c1ccccc1 (stereo not given) | inactive: -13.4% |  |
| O=C(C1=C(O)C(=O)N(Cc2ccco2)C1c1cccs1)c1cccs1 (stereo not given) | inactive: -1.18% |  |
| O=C(Nc1ccc(Cl)c(S(=O)(=O)N2CCOCC2)c1)c1cccs1 | inactive: -18.4% |  |
| COC(=O)c1ccc(N2Cc3ccccc3/C2=N\C(=O)Nc2ccccc2)cc1 | inactive: 23.9% |  |
| CN(CCNC(=O)C1CCC(=O)N(Cc2cccc(F)c2)C1)CCc1ccccc1 (stereo not given) | inactive: 18.7% |  |
| CCOc1ccc(NCc2cccn2-c2nnc(N3CCC(C(=O)NCc4cccc(OC)c4)CC3)s2)cc1 | inactive: 3.09% |  |
| O=C(N/N=C/c1ccsc1)c1ccc2ccccc2n1 | inactive: 8.62% |  |
| COc1cccc(CN(C)S(=O)(=O)c2c(C)noc2C)c1OC | inactive: 24.9% |  |
| CC1=NNC(=O)C1CCC(=O)N/N=C/c1ccc(C)cc1 (stereo not given) | inactive: 29.3% |  |
| N#Cc1ccccc1Sc1ccccc1C(=O)OCC(=O)NC1CCCCC1 | inactive: -9.61% |  |
| CSc1ccccc1NC(=O)CN(C)CC(=O)c1[nH]c(C)c(C(C)=O)c1C | inactive: 1.13% |  |
| CCCCCN1CN(S(=O)(=O)c2cccs2)c2nc3ccccc3nc21 | inactive: -5.51% |  |
| O=c1c2[nH]c3ccc(F)cc3c2ncn1Cc1ccncc1 | inactive: -2.34% |  |
| OCCC1CN(Cc2cccc(O)c2)CCN1CCc1ccccc1 (stereo not given) | inactive: -25.6% |  |
| Cc1ccc(CNC(=O)c2cnccn2)cc1 | inactive: 8.54% |  |
| CC(Sc1ncccn1)C(=O)Nc1ccc2c(c1)OCCO2 (stereo not given) | inactive: -20.9% |  |
| Cc1n[nH]c(C)c1CN(C)C(=O)c1cc(COc2ccc(F)c(F)c2)on1 | inactive: 6.25% |  |
| O=C(O)c1ccc(N2C(=O)/C(=C\c3ccccc3)N=C2c2ccccc2)cc1 | inactive: 5.59% |  |
| O=C(CN1CCC(n2nnc3cc(C(F)(F)F)ccc32)CC1)NCc1cccs1 | inactive: 13.6% |  |
| O=C(CO/N=C/c1ccccc1Cl)N1CCCc2ccccc21 | inactive: 13% |  |
